Test results from PubChem BioAssay AID485313 (National Center for Advancing Translational Sciences (NCATS), 2010).
Among all 320,000 compounds or so, about 7,600 (2.4%) were called active. This list was built around the results that the source calls inconclusive (neither active nor inactive); the mix of calls is not that of the screen. Calls come from the whole dose curve; as a rule, active = well fitted activation curve with a large enough effect; inconclusive = small, poorly fitted or top-dose-only effect; inactive = no such curve, though single readings can be large or run the other way. Where the call is inconclusive, the potency comes from a doubtful curve fit.

Test: qHTS Assay for NPC1 Promoter Activators; note: nearly all actives have a fitted effect of over 60% in size;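 for activation: reporter is driven by a mutant NPC1 promoter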
Settings: Huh7 NPC1 promoter luciferase reporter, 24 h; series mostly up to 9.22 µM
How it was run: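 Huh7 cells stably carrying NPC1 promoter–luciferase, plated in Opti-MEM with 10% FBS for 2 h, were exposed to compound in DMSO for 24 h at 37 °C; luciferase reagent was added for 10 min and luminescence read.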
Potency is the fitted concentration of half-maximal effect; tags give direction and shape of the fitted curve.

Potency, inactive:
Cc1ccc(C(=O)COC(=O)CCC(=O)Nc2ccccc2Cl)cc1[N+](=O)[O-]
NC(=O)C1CN(C(=O)c2nn(Cc3ccccc3)c(=O)c3ccccc23)c2ccccc2O1 (stereo not drawn)
C/C(=N/OCO/N=C(\C)c1ccccc1)c1ccccc1
Cn1c(-c2c(N)n(CCc3ccccc3)c3nc4ccccc4nc23)nc2ccccc21
CC(C)NC(=O)C(c1ccc(F)cc1)N(Cc1ccco1)C(=O)CCC(=O)Nc1ccccn1 (stereo not drawn)
CC(C)c1ccccc1OCC(=O)Nc1nnc(C2CC2)s1
Cc1cccc(NC(=O)CSc2nnc(C3CC3)n2CC2CCCO2)c1C (stereo not drawn)
O=C(O)Cc1sc(-c2ccccc2)nc1-c1cccs1
COC(=O)COc1ccsc1C(=O)OC
O=C(N/N=C\CCc1ccccc1)c1ccco1
COc1ccc(-c2sc(NC(C)=O)nc2-c2ccccc2)cc1
Cc1cccc(C)c1NC(=O)C(Cl)=C(Cl)Cl
O=C(Nc1ccc(S(=O)(=O)N2CCOCC2)cc1)c1ccc([N+](=O)[O-])s1
CCC(C)(C(=O)NC1CCCC1)N(Cc1cccs1)C(=O)c1ccc2c(c1)OCO2 (stereo not drawn)
CC(=O)c1cccc(NC(=O)COC(=O)[C@@H](NC(=O)OCc2ccccc2)C(C)C)c1
Cc1nnsc1-c1nnc(SCC(=O)c2ccccc2)n1C1CC1
CC(=O)c1cccc(NC(=S)NC(=O)c2ccc(C)cc2Cl)c1
CC(Oc1ccc2c(-c3ccccc3)cc(=O)oc2c1)C(=O)NC(Cc1c[nH]c2ccc(O)cc12)C(=O)O (stereo not drawn)
O=S(=O)(c1ccc2nc(-c3ccco3)c(-c3ccco3)nc2c1)N1CCOCC1
Cc1ccc(O)c(C2=Nc3ccccc3N=C(c3cccs3)C2)c1
C#CCN(CC=C)C(=O)c1ccc2nc(C3CCCCC3)oc2c1

Potency, inconclusive:
COc1ccc(NC(=O)c2ccc(-c3ccccc3Cl)o2)cc1 3.16 µM [activator, single point]
COc1cccc(C(=O)Nc2cccc(C(C)=O)c2)c1 4.47 µM [activator, single point]
C/C=C/c1ccc(OCC(=O)OCc2csc(Nc3ccc(C)cc3)n2)c(OC)c1 2.82 µM [activator, partial curve]
C#Cc1cccc(NC(=O)CSc2nnc(-c3ccc(C(F)(F)F)cn3)o2)c1 3.16 µM [activator, partial curve]
CC(=O)c1ccc(-c2ccc(C(=O)N3CCC(C(N)=O)CC3)o2)cc1 2 µM [activator, partial curve]
Fc1ccccc1/C=N/Nc1ccc(Cl)nn1 3.55 µM [activator, single point]
COc1ccccc1CNC(=O)CN1C(=O)c2cccc(N)c2C1=O 3.55 µM [activator, partial curve]
CC1(C)CC(=O)C=C(NNC(=O)c2ccccc2O)C1 2 µM [activator, partial curve]
CS(=O)(=O)Nc1ccc(C(=O)NCCc2ccccc2)cc1 3.98 µM [activator, partial curve]
O=C(Nc1nccs1)c1ccc(COc2c(F)c(F)cc(F)c2F)cc1 6.31 µM [activator, single point]
c1ccc(Nc2nc3ccccc3[nH]2)nc1 2.82 µM [activator, partial curve]
Cc1ccc(NC(=O)Nc2cccc(F)c2)nc1 3.55 µM [activator, single point]
Nc1c(C(=O)Nc2ccc3c(c2)OCCO3)nnn1Cc1cccc(Cl)c1 4.47 µM [activator, partial curve]
CC(NC(=O)Nc1ccc2c(c1)OCO2)C1CCCO1 (stereo not drawn) 2.82 µM [activator, partial curve]
N#C/C(=C\c1cccs1)c1nc2ccccc2[nH]1 3.55 µM [activator, partial curve]
CCn1c(SCc2cccc(C(=O)O)c2)nnc1-c1ccccc1 3.16 µM [activator, single point]
CCOC(=O)Cc1csc(NC(=O)c2ccco2)n1 3.16 µM [activator, single point]
CN(C(=O)c1ccccn1)c1nnc(-c2cnccn2)s1 4.47 µM [activator, single point]
CC(=O)Nc1cccc(C(=O)OCCCOc2ccc(F)cc2)c1 3.55 µM [activator, single point]
COc1ccc2c(c1OC)C(=O)N(c1nccs1)C2 2.51 µM [activator, partial curve]
O=C(Nc1cccc(Cl)c1)c1cnn2cccnc12 2.24 µM [activator, partial curve]
COc1ccccc1-c1nc(SCc2ccccn2)n[nH]1 6.31 µM [activator, single point]
O=C(c1cccc(Br)c1)c1coc2ccc(O)cc12 4.47 µM [activator, single point]
Cc1ccc(NC(=O)c2ocnc2C)cc1Cl 3.16 µM [activator, single point]
CCc1nnc(NS(=O)(=O)c2ccc(NC(=S)NC(=O)/C=C/c3ccc(OC)cc3)cc2)s1 5.62 µM [activator, single point]
Cc1ccccc1C(=O)O/N=C1\CCS(=O)(=O)c2sccc21 5.62 µM [activator, single point]
O=C(CSc1ccc(-c2ccccc2)nn1)c1ccccc1 3.98 µM [activator, single point]
Cc1ccsc1/C=N/Nc1nc(=O)[nH]nc1C 3.16 µM [activator, partial curve]
COc1cc2c(cc1NC(=O)COC(=O)/C=C/c1ccc([N+](=O)[O-])cc1)oc1ccccc12 3.55 µM [activator, partial curve]
CCNC(=S)NNC(=O)c1cc(-c2cccc(C)c2)nc2ccccc12 2.51 µM [activator, partial curve]
Cc1ccccc1-n1c(C)cc(/C=N/Nc2ccc([N+](=O)[O-])cn2)c1C 2.24 µM [activator, partial curve]
Nn1c(COc2ccc(Cl)cc2)nc2ccccc2c1=O 2.82 µM [activator, partial curve]
Cc1ccccc1-c1nc2cc(Cl)ccc2o1 5.62 µM [activator, single point]
COCCn1c(=O)[nH]c2cc(C(=O)Nc3cccc(F)c3)ccc2c1=O 3.98 µM [activator, single point]
O=C(Nc1cccc(/C=C/c2ccccn2)c1)c1cc(Cl)ccn1 2.24 µM [activator, partial curve]
Cc1ccc(-c2onc3ccc(C=O)cc23)cc1 2.24 µM [activator, partial curve]
Nc1ccc(-c2nc3c(Cl)c(N)ccc3[nH]2)cc1 2.51 µM [activator, partial curve]
COc1ccc2oc(=N)c(C(=O)Nc3ccc(Cl)cc3)cc2c1 3.16 µM [activator, single point]
O=C(Nc1ccc2nn(-c3ccccc3)nc2c1)c1cccs1 2.82 µM [activator, partial curve]
CSc1ccc(CNc2ccccn2)cc1 3.55 µM [activator, partial curve]
O=C(COC(=O)c1cccc(NC(=O)c2ccco2)c1)c1ccc(Br)cc1 4.47 µM [activator, partial curve]
Cc1nc(NC(=O)c2cc3ccccc3o2)ccc1Br 3.16 µM [activator, partial curve]
CCOc1ccccc1NC(=O)/C=C/c1ccccc1[N+](=O)[O-] 1.26 µM [activator, full curve, poor fit]
O=C(/C=C/c1ccccc1Cl)NCc1ccco1 3.16 µM [activator, single point]
Cc1nc(N)sc1N=Nc1ccc(F)cc1 3.98 µM [activator, partial curve]

Potency, active:
CC(C)=CCN1CCN(Cc2cnc(C)s2)CC1CCO (stereo not drawn) 1.58 µM
COc1cccc(C(=O)Nc2ccc(C3CC3(Cl)Cl)cc2)c1 (stereo not drawn) 2.24 µM
Nc1ccc(-c2nc3ccc([N+](=O)[O-])cc3[nH]2)cc1 2.24 µM
CCN=c1scc(-c2cccs2)n1/N=C/c1cc(OC)ccc1O 2 µM
CN1CCN(C(=O)c2cc3sc4ccccc4c3s2)CC1 0.631 µM
c1ccc(-n2ncc3c(NCC4CCCO4)ncnc32)cc1 (stereo not drawn) 2 µM
CN1C(=O)/C(=C/C=C2\SCCN2C)N(C)C1=S 3.16 µM
CCOc1cccc2cc(-c3cn4cc(C)ccc4n3)c(=O)oc12 0.631 µM
COc1cccc(-c2nnc(-c3ccc(C)o3)o2)c1 1.12 µM
CCc1ccc(C(=O)NC(=S)Nc2ccc3c(c2)OCCO3)cc1 2.82 µM
Cc1ccc(C(=O)/C=C/c2c[nH]c3ccccc23)cc1 3.98 µM
O=C(c1cc(-c2ccc(O)cc2)on1)N1CCCC1 0.447 µM
